Measurements as given in publication PMC4336329 (PLoS ONE, 2015).
Screen size: about 310,000 compounds; about 2,200 (0.71%) showed an effect of 50% or more. Effects have a minus sign here. The list shows a part of the results.

The compounds below were run against human ether-à-go-go-related gene (hERG) potassium channel (human, UniProt Q12809) (assay: primary screen, population patch clamp on CHO cells stably expressing hERG).
Chain of human ether-à-go-go-related gene (hERG) potassium channel (Q12809 whole entry, looked up): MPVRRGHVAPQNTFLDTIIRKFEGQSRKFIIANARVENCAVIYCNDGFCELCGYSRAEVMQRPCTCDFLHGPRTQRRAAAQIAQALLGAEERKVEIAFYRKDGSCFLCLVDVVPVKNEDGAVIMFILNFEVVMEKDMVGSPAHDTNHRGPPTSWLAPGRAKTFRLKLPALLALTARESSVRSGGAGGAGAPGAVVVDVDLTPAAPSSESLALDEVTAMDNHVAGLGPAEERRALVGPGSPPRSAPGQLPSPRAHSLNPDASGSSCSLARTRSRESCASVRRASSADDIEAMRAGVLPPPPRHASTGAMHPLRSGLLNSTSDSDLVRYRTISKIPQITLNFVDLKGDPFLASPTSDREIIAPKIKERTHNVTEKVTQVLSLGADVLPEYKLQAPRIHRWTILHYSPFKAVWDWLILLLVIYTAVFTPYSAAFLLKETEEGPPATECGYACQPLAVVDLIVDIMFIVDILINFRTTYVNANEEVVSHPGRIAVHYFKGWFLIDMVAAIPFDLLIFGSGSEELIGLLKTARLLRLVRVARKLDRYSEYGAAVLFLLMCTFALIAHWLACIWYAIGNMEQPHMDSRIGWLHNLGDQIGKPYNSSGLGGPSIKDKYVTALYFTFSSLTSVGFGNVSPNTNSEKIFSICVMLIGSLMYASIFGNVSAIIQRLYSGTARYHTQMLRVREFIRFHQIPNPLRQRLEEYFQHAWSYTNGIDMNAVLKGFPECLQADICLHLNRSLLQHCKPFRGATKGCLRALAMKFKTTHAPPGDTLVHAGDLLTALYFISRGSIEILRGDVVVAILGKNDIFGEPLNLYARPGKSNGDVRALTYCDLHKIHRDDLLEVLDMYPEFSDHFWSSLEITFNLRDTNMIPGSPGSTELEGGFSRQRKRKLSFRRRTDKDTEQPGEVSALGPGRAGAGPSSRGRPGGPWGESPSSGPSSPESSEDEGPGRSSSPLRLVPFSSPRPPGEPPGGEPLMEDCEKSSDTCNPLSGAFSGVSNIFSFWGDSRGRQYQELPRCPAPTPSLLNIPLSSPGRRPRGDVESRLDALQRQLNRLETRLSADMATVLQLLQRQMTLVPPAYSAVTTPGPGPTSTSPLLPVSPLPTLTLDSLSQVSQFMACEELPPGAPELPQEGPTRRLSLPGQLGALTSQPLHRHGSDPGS

| SMILES | hERG current change (%, negative = inhibition) at 1uM |
| --- | --- |
| Cc1ccccc1NC(=S)NC(NC(=O)COc1ccccc1)C(Cl)(Cl)Cl (stereo not drawn) | 14.3% |
| CCOc1ccc(NC(=O)C(NC(=O)C2CCC(C)CC2)C(C)C)cc1 (stereo not drawn) | 13.7% |
| CCSc1ccc2nnc(-c3ccc(F)cc3)n2n1 | -0.949% |
| CCc1nnc2n1N=C(c1ccc(OC)cc1)CS2 | -4.57% |
| CCCC[N+]1(C)C2CC(OC(=O)C(CO)c3ccccc3)CC1C1OC12.[Br-] (stereo not drawn) | 11.9% |
| O=C(N[C@H]1CC1c1ccccc1)c1ccc([N+](=O)[O-])cc1 (stereo partly drawn) | 7.34% |
| Cc1onc(C(=O)/C=C/N(C)C)c1C(=O)Nc1nccs1 | 12.4% |
| COc1cccc(C(c2nnnn2Cc2ccccc2)N2CCN(C(=O)c3ccco3)CC2)c1OC (stereo not drawn) | -7.66% |
| CN(C)S(=O)(=O)N1CCC(Oc2cccc(C(=O)N3CCCCCCC3)c2)CC1 | 11.7% |
| CC(=O)N1CCN(C(=O)c2ccc(Cl)c(S(=O)(=O)N3CCc4ccccc43)c2)CC1 | -0.541% |
| Cc1ccc(C(c2c(C)n(C)n(-c3ccccc3)c2=O)c2c(C)n(C)n(-c3ccccc3)c2=O)s1 | 4.02% |
| O=C(N/N=C/c1ccccc1)c1n[nH]c2c1CCCC2 | 12.2% |
| C=Cc1ccc(CSc2cc(C)nc3nc(C)nn23)cc1 | 0.781% |
| O=C(CN1C(=O)NC2(CCCCCC2)C1=O)Nc1ccc(Cl)cc1Cl | 12.6% |
| Cc1nc2nc(SCC(=O)NCCCN3CCCCC3)nn2c(C)c1Cc1ccccc1 | 9.92% |
| CCCCCC(=O)NC(NC(=S)N1CCOCC1)C(Cl)(Cl)Cl (stereo not drawn) | 9.9% |
| Cl.Cn1nnnc1SCCNCc1ccccc1F | 11.1% |
| COc1ccc(C(=O)NCCN2CCCC2)cc1[N+](=O)[O-] | 2.2% |
| CNC(=O)CN(Cc1ccccc1)S(=O)(=O)c1ccc(Cl)cc1 | 7.88% |
| CC(OC(=O)c1nsc(Cl)c1Cl)C(=O)NC(C)(C)C (stereo not drawn) | 13.3% |
| O=C(O)c1sccc1NC(=O)c1c(Cl)cccc1Cl | 4% |
| COc1ccc(C(CNC(=O)COc2ccccc2C)N2CCCCC2)cc1 (stereo not drawn) | -1.82% |

| SMILES | hERG current change (%, negative = inhibition) at 1uM |
| --- | --- |
| Cc1ccnc(NC(=O)CC(NC(=O)c2ccccc2Cl)c2ccccc2)c1 (stereo not drawn) | -8.36% |
| COc1ccc(OC)c2c(C)cc(N3CCN(C(=O)c4ccc(F)cc4)CC3)nc12 | 13.7% |
| COc1ccc(C(=O)NC(C)c2nnc(SCC(=O)NC3CCCC3)n2C)cc1 (stereo not drawn) | 11.9% |
| O=C(Nc1ccccc1)N1CCCc2ccccc21 | -28.2% |
| Cn1cccc1C(=O)/C(C#N)=C/c1ccc(F)cc1 | 9.48% |
| COC(=O)c1ccccc1NC(=O)CSc1nc2ncccc2[nH]1 | 9.06% |
| CC(=O)N1CCN(S(=O)(=O)c2cccc(C(=O)NCCC3=CCCCC3)c2)CC1 | 1.3% |
| COC(=O)C1C(=O)c2c([nH]c(C(=O)OC3CCCC3)c2C)CC1C (stereo not drawn) | 1.87% |
| O=c1c2ccccc2nc(Cc2ccccc2)n1-c1ccccc1 | 6.43% |
| CC(=O)Nc1ccc(S(=O)(=O)NCC(=O)OCC(=O)N2CCCCCC2)cc1 | 11.6% |
| O=C(Nc1ccc(Cl)cn1)c1ccc(COc2ccccc2Br)o1 | 12.2% |
| COc1ccc(-c2cc(C3CCN(Cc4ccc([N+](=O)[O-])cc4)CC3)[nH]n2)cc1 | -44.3% |
| COC(=O)C1=C(c2ccccc2)C[C@@H]2CC[C@H]1N2C(=O)NCCCOC(C)C | 9.24% |
| O=C(NC1CCCN(CCc2ccccc2)C1)c1c(F)cccc1F (stereo not drawn) | -5.35% |
| CC1(C)CC(=O)C=C(c2cccc(Cl)c2O)C1 | 7.13% |
| COc1ccc(CC(=O)c2c(O)cc(O)cc2O)cc1OC | 12.1% |
| CCOCCCn1c(=O)c2ccccc2n2c(=S)[nH]nc12 | 14.2% |
| CC(C)(C)NC(=O)CSc1nnc(-c2ccccc2)c(-c2ccccc2)n1 | 8.95% |
| CCCCCCC(=O)N1CCN(c2cc3c(cc2F)c(=O)c(C(=O)O)cn3CC)CC1 | 6.27% |
| CC1CCCC(C)N1C(=O)c1ccc2c(c1)S(=O)(=O)c1ccccc1C2=O (stereo not drawn) | -9.96% |
| COc1ccc(C(=O)NC(=S)N2CCNC(=O)C2CC(=O)OC(C)C)cc1 (stereo not drawn) | 11.6% |
| COC(=O)c1nnn(CC(=O)NC(=O)Nc2ccccc2F)c1C(=O)OC | 14.7% |

| SMILES | hERG current change (%, negative = inhibition) at 1uM |
| --- | --- |
| Cc1c(Cl)cccc1NC(=S)NCCc1ccc(F)cc1 | 15.3% |
| CC(C)CNC(=O)NC(=O)COC(=O)c1cc(F)cc(F)c1 | 4.35% |
| CCCCNCc1ccc(SC)cc1.Cl | 7.14% |
| CN(C)c1ccc(CNC(=O)C2CCC(CNc3c(N4CCCCC4)c(=O)c3=O)CC2)cc1 (stereo not drawn) | 13.8% |
| CC(=O)N1c2ccc(S(=O)(=O)N3CCC(C(=O)Nc4ncccc4C)CC3)cc2CC1C (stereo not drawn) | 21% |
| Cc1ccc(N2NC(=O)/C(=C/C=C/c3ccco3)C2=O)cc1C | 23.3% |
| Cc1cc(C)c(C#N)c(SCC(=O)NN2CC(=O)N(c3ccccc3F)CC2=O)n1 | 6.03% |
| O=C(C1CCN(S(=O)(=O)c2c(Cl)cccc2Cl)CC1)N1CCCCCCC1 | 3.01% |
| O=C1OCCN1c1c(-c2ccccc2)c(-c2cccs2)nc2c(-c3ccccc3)cccc12 | 9.44% |
| CN(C)/N=C/C=C1\CC/C(=C\c2ccc(Br)cc2)C1=O | 3.17% |
| COCCCNC(=O)C1CC(=O)N(C2CCCC2)C1 (stereo not drawn) | 12.2% |
| O=C(N/N=C/c1c(O)n(C2CC2)c(=S)[nH]c1=O)c1ccccc1 | 28.7% |
| COCCCN1C(=O)C(=O)/C(=C(/O)c2ccccc2)C1c1ccc2c(c1)OCO2 (stereo not drawn) | 12.7% |
| CC(=O)OC(COC1C[C@@H]2CC[C@@]1(C)C2(C)C)C[N+]1(C)CCCCC1.[I-] (stereo partly drawn) | 9.41% |
| Cc1[nH]nc2c1C(c1cccs1)C(C#N)=C(N)O2 (stereo not drawn) | 10.5% |
| O=C(O)c1ccccc1C(=O)c1ccc2c(c1)CCC2 | 14.9% |
| CCOc1ccc(CCN2C(=O)c3ccc(C(=O)O)cc3C2=O)cc1OCC | 8.73% |
| O=C(Nc1ccc(C(=O)O)cc1)/C(=C\C=C\c1ccccc1)NC(=O)c1ccc(Br)cc1 | 14.1% |
| Cc1cc(C)c2nc(SCC(=O)NCCC3=CCCCC3)cc(C)c2c1 | 9.04% |
| CNc1nc(NN)nc(Nc2ccccc2)n1 | 14.9% |
| CN1C(=O)c2ccccc2C(C(=O)NCc2ccco2)C1c1c[nH]c2ccccc12 (stereo not drawn) | -3.31% |
| Cc1cccc(-n2c(C)nc3c(cnn3-c3ccc(F)cc3)c2=O)c1 | 7.93% |

| SMILES | hERG current change (%, negative = inhibition) at 1uM |
| --- | --- |
| COc1ccc(NC(=S)N2CCN(S(=O)(=O)c3ccccc3)CC2)cc1OC | 10.8% |
| CC(C)C(OC(=O)c1ccco1)C(=O)NCc1ccc2c(c1)OCO2 (stereo not drawn) | 2.57% |
| CCCCC(CC)C(=O)NCCCN1CCN(CCCNC(=O)C(CC)CCCC)CC1 (stereo not drawn) | 3.41% |
| CCN(CC)c1ccc(NC(=O)CSc2nc(C)cc(=O)[nH]2)cc1 | 11.5% |
| Cc1cc([N+](=O)[O-])ccc1NC(=S)NC(=O)C(c1ccccc1)c1ccccc1 | 0.321% |
| COc1ccc(NC(=O)c2sc(N)nc2-c2ccccc2)cc1 | 2.98% |
| C#CCOCCOCCOCCNc1nc(N2CCN(C(=O)[C@H](CCC(=O)O)n3cc(C(N)[C@H](C)CC)nn3)CC2)nc(N2CCN(C(=O)[C@H](Cc3ccc(O)cc3)n3cc(C(N)[C@H](C)CC)nn3)CC2)n1.Cl (stereo partly drawn) | 16.2% |
| CC(=O)NC(CCS(C)(=O)=O)C(=O)Nc1ccccc1Cl (stereo not drawn) | 11.3% |
| CCCN(CCC)C(=O)C(CCC(=O)O)NC(=O)c1ccccc1 (stereo not drawn) | 2.94% |
| C/C(=N/NC(=S)Nc1ccccc1)c1ccc2c(c1)OCO2 | 13.8% |
| CCCOc1ccc(-c2c(C(=O)N/N=C/c3ccccc3)nnn2-c2nonc2N)cc1 | 4.36% |
| O=C(O)Cc1csc(-c2ccccc2)n1 | 12.6% |
| O=C(Cc1ccc(S(=O)(=O)N2CCCCC2)s1)Nc1cccc2ccccc12 | 12.8% |
| CCOc1ccccc1-c1nc2c([nH]1)c(=O)n(C)c(=O)n2C | 10.7% |
| CCOc1cccc(C2/C(=C(/O)c3ccc4c(c3)CC(C)O4)C(=O)C(=O)N2Cc2ccncc2)c1 (stereo not drawn) | 27.6% |
| COc1cccc(-c2cc3nc4c(c(N5CCC6(CC5)OCCO6)n3n2)CCC4)c1 | 13.5% |
| CS(=O)(=O)N(CC(=O)N1CCN(c2cccc(Cl)c2)CC1)c1cccc(F)c1 | 1.97% |
| O=[N+]([O-])c1ccc(O)c(C=Nc2cccc3ccccc23)c1 | 11.9% |
| Oc1c(C=Nc2cccc3cccnc23)sc2ccccc12 | 13.4% |
| COc1cccc(/C=C2\SC(=S)N(N3CCOCC3)C2=O)c1OC | 6.61% |
| Cc1ccccc1N(CC(=O)NC1CCCCC1)C(=O)CCC(=O)Nc1nccs1 | 10.9% |
